Data as given in the BET-seq Pho4 binding data (Le et al. 2018).
The list shows a part of the results. These are noisy estimates, calculated here from bound and input reads.

Target: T1, Pho4 (S. cerevisiae) (UniProt P07270)
T1 sequence: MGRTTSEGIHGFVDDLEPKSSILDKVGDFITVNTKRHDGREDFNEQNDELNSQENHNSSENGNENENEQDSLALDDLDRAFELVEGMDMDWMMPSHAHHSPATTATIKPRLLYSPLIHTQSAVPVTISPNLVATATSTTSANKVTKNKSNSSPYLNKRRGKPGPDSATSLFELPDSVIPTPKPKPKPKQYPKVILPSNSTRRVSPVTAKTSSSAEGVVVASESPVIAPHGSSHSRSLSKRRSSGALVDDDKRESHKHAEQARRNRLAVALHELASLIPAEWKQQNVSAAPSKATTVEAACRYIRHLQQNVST
Assay: relative binding free energy (BET-seq); higher = weaker binding
Conditions: reference: library average

| Sequence | relative binding free energy [kcal/mol] |
| --- | --- |
| TGGTCCACGTGAAGAG | 0.36 |
| CGGTACACGTGAGTGC | 0.23 |
| ATAATCACGTGGTCGG | 0.02 |
| GTGGTCACGTGGTTGT | 0.13 |
| TATTTCACGTGTAAAT | 0.15 |
| TTAGGCACGTGGTGCG | -0.13 |
| GGAGTCACGTGAGTGT | 0.37 |
| TGTTACACGTGCATGG | 0.02 |
| TCCGGCACGTGGAGTG | 0.02 |
| GTGTGCACGTGTTACG | -0.07 |
| GGAAGCACGTGTTGAG | -0.09 |
| AGCTTCACGTGGGTCG | 0.11 |
| GGAGTCACGTGTACGG | 0.25 |
| TTTTGCACGTGAAGCA | 0.23 |
| TTGAGCACGTGCTAGT | -0.24 |
| TTCGGCACGTGATAGG | 0.05 |
| AAATTCACGTGTGGAT | 0.33 |
| GGCGTCACGTGGGCAG | -0.11 |
| GGGGACACGTGTGCTG | 0.05 |
| GACGACACGTGTGGTG | 0.02 |
| CGCTACACGTGGGTGT | -0.08 |
| ATGGACACGTGTAGGG | 0.08 |
| GGAGGCACGTGGTTCT | -0.07 |
| TCTGGCACGTGAGTTC | 0.23 |
| TGTGGCACGTGGATTG | -0.05 |

| Sequence | relative binding free energy [kcal/mol] |
| --- | --- |
| GGTTACACGTGGTGGC | 0.03 |
| GAGGGCACGTGTGGAA | 0.07 |
| TGGGACACGTGTGAGT | 0.27 |
| CGGATCACGTGGTAAG | 0.17 |
| CTTTGCACGTGGTGCA | -0.02 |
| TTGCACACGTGGTGTT | -0.11 |
| AGGTGCACGTGTGTGG | 0 |
| GATTGCACGTGCGGGA | 0.01 |
| GGTATCACGTGTGTGG | 0.25 |
| TCTGTCACGTGGGGGC | -0.15 |
| GATGGCACGTGAAGTC | 0.25 |
| AGTGGCACGTGTGCTC | -0.04 |
| ACGGGCACGTGGGTAG | -0.31 |
| GGATGCACGTGCGGTC | 0.08 |
| TGAAACACGTGCTGGG | 0 |
| AATGTCACGTGGTATT | -0.01 |
| TATTACACGTGGCGGT | 0.04 |
| CTTTGCACGTGGGATA | 0 |
| TAAATCACGTGCGGGG | 0.15 |
| TTATGCACGTGGATGG | -0.1 |
| GGAGGCACGTGTGGTT | 0.07 |
| GTTGCCACGTGTGGCT | -0.05 |
| GTGCGCACGTGAGTTT | 0.18 |
| TTATTCACGTGGTAAG | 0.32 |
| ATAGGCACGTGGAAAG | 0.02 |

| Sequence | relative binding free energy [kcal/mol] |
| --- | --- |
| AATGTCACGTGACTTG | 0.29 |
| ATGGACACGTGCTTGT | -0.16 |
| TGTAACACGTGTGAGA | 0.05 |
| GTGTTCACGTGTTAGA | 0.27 |
| GTGGTCACGTGACGAT | 0.29 |
| TTTGTCACGTGACGTC | 0.21 |
| TTGAACACGTGGAGGG | -0.05 |
| GTAGACACGTGCGGGT | 0.08 |
| AGTAGCACGTGCAGGT | -0.1 |
| AGAGTCACGTGATGCG | 0.25 |
| TCTGTCACGTGGATAG | 0.11 |
| AGTCTCACGTGGTTAG | 0.15 |
| AATATCACGTGGGGTA | 0.05 |
| GGGCGCACGTGTATAT | 0.04 |
| GTGCTCACGTGTTTTA | 0.33 |
| ACTGTCACGTGTAGTA | 0.07 |
| GAGTTCACGTGTGGCG | 0.43 |
| ATTGGCACGTGGGGGC | -0.16 |
| TGGGACACGTGTTCGT | -0.02 |
| TTTGACACGTGGAGTT | 0.08 |
| TGAGACACGTGAGGTT | 0.17 |
| GGGCTCACGTGTTTGC | 0.21 |
| AAGCGCACGTGGTTGG | -0.11 |
| CTGTTCACGTGAGAGT | 0.53 |
| ATGGTCACGTGGGAAG | 0.11 |

| Sequence | relative binding free energy [kcal/mol] |
| --- | --- |
| TGGGGCACGTGCTTAA | -0.13 |
| TATATCACGTGGTAGA | 0.19 |
| TATTGCACGTGCCGGT | -0.06 |
| TTGTGCACGTGCGAGG | -0.07 |
| TGAGTCACGTGGCGTA | 0 |
| TTATACACGTGTGATG | -0.03 |
| GGGGCCACGTGATGTG | 0.04 |
| TGTTGCACGTGAGTTA | 0.22 |
| ATGCGCACGTGGTGGT | -0.23 |
| AGTAGCACGTGTGCCT | 0.01 |
| GGAGCCACGTGATGGT | 0 |
| TGGTGCACGTGAAGTA | 0.07 |
| TGTTGCACGTGATGAG | 0.03 |
| TGGCGCACGTGGTGTT | -0.14 |
| TTTTGCACGTGTAGTC | 0.18 |
| TAAGGCACGTGGATTA | 0.09 |
| TTCATCACGTGTATAT | 0.1 |
| CTGGGCACGTGGATTG | -0.08 |
| CGTTGCACGTGTGTAT | 0.01 |
| TCGAACACGTGGTTTG | -0.07 |
| GGTGACACGTGAGCGA | 0.34 |
| TGAGACACGTGTTCGT | 0.02 |
| GCTATCACGTGAAGTG | 0.45 |
| ACGGGCACGTGGATTG | -0.07 |
| CTGTGCACGTGAGGAG | 0.17 |

| Sequence | relative binding free energy [kcal/mol] |
| --- | --- |
| GGGTGCACGTGGAGCA | 0.05 |
| TTACGCACGTGGAGTG | -0.06 |
| ACAGTCACGTGAGGGT | 0.13 |
| GGTGGCACGTGGATTT | 0.04 |
| AGTGACACGTGTTTGT | -0.06 |
| TGATTCACGTGTGCTT | 0.28 |
| ACATGCACGTGGTGGT | -0.26 |
| GGTAGCACGTGTCGGC | -0.08 |
| TATTTCACGTGTGGAT | 0.37 |
| AGGGGCACGTGGAATA | -0.09 |
| TGCGACACGTGAGGTA | 0.2 |
| TGGTTCACGTGAGGGG | 0.48 |
| GTCTACACGTGTAGGT | 0.17 |
| GGGCACACGTGTGTTT | 0.03 |
| TAGGGCACGTGTGTGT | -0.03 |
| AGGGTCACGTGTAAAG | 0.18 |
| ATTGACACGTGCTGTG | -0.03 |
| GACGTCACGTGGGTGA | 0.19 |
| GTGGTCACGTGGGATG | 0.07 |
| GGAAGCACGTGAGTTG | 0.26 |
| TTACACACGTGAGGGA | 0.21 |
| TTTTGCACGTGGCTTG | -0.12 |
| TGATTCACGTGCAGGA | 0.26 |
| AATGGCACGTGAGGCA | 0.18 |
| TGTATCACGTGGACTT | 0.12 |

| Sequence | relative binding free energy [kcal/mol] |
| --- | --- |
| ATAGACACGTGTTTGA | 0.03 |
| TGAGTCACGTGCTGAT | 0.04 |
| ATTGTCACGTGGCTGA | 0.01 |
| TTGTACACGTGACTTT | 0.21 |
| GTTGACACGTGCAGTG | 0.09 |
| TTATTCACGTGAGTTC | 0.36 |
| CTAAACACGTGAGGGT | 0.1 |
| GAGTGCACGTGTAAGT | 0.11 |
| AGGAACACGTGGGGCT | -0.12 |
| TGGCTCACGTGTGTCG | 0.24 |
| TGTCGCACGTGGCTAG | -0.02 |
| AGTGTCACGTGATATG | 0.26 |
| TATTACACGTGTTAAA | 0.25 |
| TCGGTCACGTGGGGGG | 0.04 |
| TGGTTCACGTGTAATA | 0.25 |
| AGCTGCACGTGGTCGT | -0.08 |
| TGCTTCACGTGGTCGG | 0.13 |
| ATTTGCACGTGGATTT | 0.07 |
| TAAAACACGTGGTGGG | -0.01 |
| CAGAGCACGTGTGTTA | -0.03 |
| AGCTGCACGTGGTGGG | -0.14 |
